We go through 42 sequences from PMC7819943, “Rice protein-binding microarrays: a tool to detect cis-acting elements near promoter regions in rice”.

The list shows a part of the results.

This experiment concerns the target T1, OsWOX13 (Oryza sativa, UniProt Q5QMM3 1-267).
T1 sequence: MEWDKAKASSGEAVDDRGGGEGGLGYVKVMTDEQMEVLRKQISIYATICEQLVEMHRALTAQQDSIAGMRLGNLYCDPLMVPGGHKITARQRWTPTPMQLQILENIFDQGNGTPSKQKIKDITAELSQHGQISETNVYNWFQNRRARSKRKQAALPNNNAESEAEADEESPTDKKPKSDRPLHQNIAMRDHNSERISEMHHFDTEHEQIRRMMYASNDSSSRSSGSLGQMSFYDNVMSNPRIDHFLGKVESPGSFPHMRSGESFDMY
In words: protein-binding microarray (RPBM); PBS, 2% BSA, 51.3 ng/ul salmon testes DNA, 50 uM zinc acetate, 200 nM TF, 25 C, 1 h; high values mean tight binding. The following applies: protein: recombinant; tags: N-terminal polyhistidine and DsRed monomer fusion (pET32a); label: CyDye5-dUTP incorporated in the synthesized complementary strand; 3' TTTTT single-stranded linker to array surface; dsDNA, one strand shown. Put shortly: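 Binding signal is defined as the fluorescence intensity of each feature in arbitrary units, read on an Axon 4000B scanner. Transcription factors with N-terminal polyhistidine and DsRed fusions came from E. coli BL21-CodonPlus and were purified on Ni–NTA. They were incubated at 200 nM for 1 h at 25 °C on a custom Agilent array that had been made double-stranded with Cy5-dUTP, with 50 µM zinc acetate present, and the array was washed.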
“CTTGAATAGACTATTATATATGCATATAATACTACGAGTCCGGAGTCACCTAGTGCAG”: the binding signal was 3690 fluorescence intensity (a.u.).
Consider “TTGATCAATTTTATACTCCCTCCGTTTCGTATTGTAAAACCGGAGTCACCTAGTGCAG”, for which the binding signal was 3620 fluorescence intensity (a.u.).
In the case of “GAACTAATTAGGCTTAAAAGATTCGTCTCGCGATTTCCTCCGGAGTCACCTAGTGCAG” it was 25700 fluorescence intensity (a.u.); in that of “CTCTCTCATTGATTGAGTGGATATTATATTTTAATGCGTTCGGAGTCACCTAGTGCAG”, 48500 fluorescence intensity (a.u.); in that of “GGGTCAGGGTGGGCGTGGATTGATATTTTAATACGAATAACGGAGTCACCTAGTGCAG”, 10800 fluorescence intensity (a.u.).
Consider “GATAGCTCAATTATGTGCTATTAATATACAGAAGGCATGGCGGAGTCACCTAGTGCAG”, for which the binding signal was 4900 fluorescence intensity (a.u.).
Regarding “CATAAATTATTCCTGTCTTGTAGTACATCCATCCATCCATCGGAGTCACCTAGTGCAG”, the binding signal is 26300 fluorescence intensity (a.u.).
Consider “TGTAGCAATTACGTTTCCCTTTCCTCCCCTGTCTCTTCCACGGAGTCACCTAGTGCAG”, for which the binding signal is 3380 fluorescence intensity (a.u.).
The figure for “GTGACTGACTGATGATAAATTTGATAATACGCGTCGTTAGCGGAGTCACCTAGTGCAG” is 63100 fluorescence intensity (a.u.); for “CCTATACTATAATTGCCAGTTCTCGCTTGCGGGACGAGAGCGGAGTCACCTAGTGCAG” it is 8590 fluorescence intensity (a.u.); for “TCTTGTTAACCTCATTATTAATTTTCTCTTCTAAACTCCTCGGAGTCACCTAGTGCAG” it is 5290 fluorescence intensity (a.u.).
The figure for “TACACTAATTTAAATAGTTGGAGGTAAAGACATCTAGTATCGGAGTCACCTAGTGCAG” is 13500 fluorescence intensity (a.u.).
The figure for “ATAAATGATTGGAGGATTTGTTGTGACTTTTCCACAATGTCGGAGTCACCTAGTGCAG” is 58200 fluorescence intensity (a.u.).
Consider “AGCCTAATTAATCCGTCATTAGCAAACGTTTACTATAGCACGGAGTCACCTAGTGCAG”, for which the binding signal was 37100 fluorescence intensity (a.u.).
For “TATTATGTCGTCTTAATTAATTATTAGGTAGCCGGCCTACCGGAGTCACCTAGTGCAG”, the binding signal was 10200 fluorescence intensity (a.u.).
Take “AATTAATAATGTCAGTCACGGCCACGAATAATCCAGCACGCGGAGTCACCTAGTGCAG”: the binding signal is 3900 fluorescence intensity (a.u.).
Take “ACCAAATTTAACTTACATGCATGATATCTTTATTTATTATCGGAGTCACCTAGTGCAG”: the binding signal is 6380 fluorescence intensity (a.u.).
In the case of “CACAGATAGATTTGCAGGTGTTCAGTCTACTACACCTGAACGGAGTCACCTAGTGCAG” it was 27700 fluorescence intensity (a.u.); in that of “TCAATTTGACGTTAACAGTGCCACGAGTACAGCCAAACCGCGGAGTCACCTAGTGCAG”, 3410 fluorescence intensity (a.u.).
For the sequence “CTTAATGAACGGTTTGATGAGGTAAACACAGATTTGCTCCCGGAGTCACCTAGTGCAG”, the binding signal is 19200 fluorescence intensity (a.u.).
For “AAACAAATTATCCATGTTCTGTTGGGTTGAGAATTTTGATCGGAGTCACCTAGTGCAG”, the binding signal was 7520 fluorescence intensity (a.u.).
The figure for “TAAATTGTACATGATATATGTCAAGTGTCAACGTCTGATTCGGAGTCACCTAGTGCAG” is 5030 fluorescence intensity (a.u.); for “GATAACGTGGCCAAATTATATCAGACGTTCATGTTTAGATCGGAGTCACCTAGTGCAG” it is 5800 fluorescence intensity (a.u.).
The figure for “ACTGTACTGATTACATCATTTGACTAGGTCGTTGCACGCGCGGAGTCACCTAGTGCAG” is 15700 fluorescence intensity (a.u.); for “ATTTAATGGAACTAATTTGGTGTCCTAGATATTGTTATTTCGGAGTCACCTAGTGCAG” it is 28600 fluorescence intensity (a.u.); for “GAATTGAATTATTAGTATCTTAATTATTTGTTTAAAATATCGGAGTCACCTAGTGCAG” it is 3230 fluorescence intensity (a.u.).
Take “ACAGATTGCTCCACTTCGCCTGCCTGCTTCGCCCACCGTCCGGAGTCACCTAGTGCAG”: the binding signal is 5250 fluorescence intensity (a.u.).
Turning to “GTTACATGACAATTGACAATCTAATCAGTATGTTATTGTCCGGAGTCACCTAGTGCAG”, the binding signal was 16100 fluorescence intensity (a.u.).
For the sequence “CTTTAATTTGCATGTCTCTCCATCACTACCAAATTCGGCTCGGAGTCACCTAGTGCAG”, the binding signal is 40800 fluorescence intensity (a.u.).
In the case of “AATGTGATTTTCATGTATCCAATTAAAATATTTTAAGAAGCGGAGTCACCTAGTGCAG” it was 9180 fluorescence intensity (a.u.).
Take “CAAGGGATAAACATATAGAGACAGACAAATTGGAAGGAACCGGAGTCACCTAGTGCAG”: the binding signal is 45600 fluorescence intensity (a.u.).
The figure for “GCAGCCAATTAAATTTTGTTATTTCTACCCATTACTTGTTCGGAGTCACCTAGTGCAG” is 13000 fluorescence intensity (a.u.); for “TGAAATGAAATCAATCTAACAATCCTAAAAGCCCTTCCTCCGGAGTCACCTAGTGCAG” it is 11600 fluorescence intensity (a.u.).
In the case of “CAAAATTAATAATAAACTATGAGCTTTATTTTAGTAATTACGGAGTCACCTAGTGCAG” it was 11700 fluorescence intensity (a.u.).
In the case of “TGCCTTGAATTTGATTGCAATCCTCAGTTTTCCTAAACTGCGGAGTCACCTAGTGCAG” it was 26800 fluorescence intensity (a.u.); in that of “CCTGTTGATTTCATATTCCTCAGATCTTGAATTTTGTTTGCGGAGTCACCTAGTGCAG”, 8470 fluorescence intensity (a.u.).
On to “CATCGTGCAATTGATTGATCGTCTGATTTTATGTCGATTCCGGAGTCACCTAGTGCAG”, for which the binding signal is 42600 fluorescence intensity (a.u.).
Consider “CATAAATGAGATCCAGTGACGGCATGAGCATGTCCCAATTCGGAGTCACCTAGTGCAG”, for which the binding signal is 3900 fluorescence intensity (a.u.).
In the case of “AAAATTAATTATAAATATTAAACGTAGACTATTAATAAAACGGAGTCACCTAGTGCAG” it was 4460 fluorescence intensity (a.u.); in that of “ATCTGAATCGTCCATTATCCATCATTCATTTATCATCTACCGGAGTCACCTAGTGCAG”, 3270 fluorescence intensity (a.u.).
Take “CGCTGATGCGCGTGTGATGATTGCTGTGGTTTTATTCTCCCGGAGTCACCTAGTGCAG”: the binding signal was 10200 fluorescence intensity (a.u.).
In the case of “TTAATTATCATTAAATTTGATCGTGCTTAAATTTGGAGGTCGGAGTCACCTAGTGCAG” it was 24800 fluorescence intensity (a.u.).
